In PubChem BioAssay AID504332 (National Center for Advancing Translational Sciences (NCATS), 2011):
About 31,000 (8.9%) of roughly 350,000 compounds were called active. The shares of active, inactive and inconclusive entries below differ from those in the screen. The call rests on the fitted dose curve; in most records, active means well fitted inhibition curve with a large enough effect; inconclusive means small, poorly fitted or top-dose-only effect; inactive means no such curve, though single readings can be large or run the other way. Where the call is inconclusive, the potency comes from a doubtful curve fit.

Biological target: Histone-lysine N-methyltransferase EHMT2 (Homo sapiens) (UniProt Q96KQ7)
Sequence of UniProt Q96KQ7 (Q96KQ7 whole entry, looked up): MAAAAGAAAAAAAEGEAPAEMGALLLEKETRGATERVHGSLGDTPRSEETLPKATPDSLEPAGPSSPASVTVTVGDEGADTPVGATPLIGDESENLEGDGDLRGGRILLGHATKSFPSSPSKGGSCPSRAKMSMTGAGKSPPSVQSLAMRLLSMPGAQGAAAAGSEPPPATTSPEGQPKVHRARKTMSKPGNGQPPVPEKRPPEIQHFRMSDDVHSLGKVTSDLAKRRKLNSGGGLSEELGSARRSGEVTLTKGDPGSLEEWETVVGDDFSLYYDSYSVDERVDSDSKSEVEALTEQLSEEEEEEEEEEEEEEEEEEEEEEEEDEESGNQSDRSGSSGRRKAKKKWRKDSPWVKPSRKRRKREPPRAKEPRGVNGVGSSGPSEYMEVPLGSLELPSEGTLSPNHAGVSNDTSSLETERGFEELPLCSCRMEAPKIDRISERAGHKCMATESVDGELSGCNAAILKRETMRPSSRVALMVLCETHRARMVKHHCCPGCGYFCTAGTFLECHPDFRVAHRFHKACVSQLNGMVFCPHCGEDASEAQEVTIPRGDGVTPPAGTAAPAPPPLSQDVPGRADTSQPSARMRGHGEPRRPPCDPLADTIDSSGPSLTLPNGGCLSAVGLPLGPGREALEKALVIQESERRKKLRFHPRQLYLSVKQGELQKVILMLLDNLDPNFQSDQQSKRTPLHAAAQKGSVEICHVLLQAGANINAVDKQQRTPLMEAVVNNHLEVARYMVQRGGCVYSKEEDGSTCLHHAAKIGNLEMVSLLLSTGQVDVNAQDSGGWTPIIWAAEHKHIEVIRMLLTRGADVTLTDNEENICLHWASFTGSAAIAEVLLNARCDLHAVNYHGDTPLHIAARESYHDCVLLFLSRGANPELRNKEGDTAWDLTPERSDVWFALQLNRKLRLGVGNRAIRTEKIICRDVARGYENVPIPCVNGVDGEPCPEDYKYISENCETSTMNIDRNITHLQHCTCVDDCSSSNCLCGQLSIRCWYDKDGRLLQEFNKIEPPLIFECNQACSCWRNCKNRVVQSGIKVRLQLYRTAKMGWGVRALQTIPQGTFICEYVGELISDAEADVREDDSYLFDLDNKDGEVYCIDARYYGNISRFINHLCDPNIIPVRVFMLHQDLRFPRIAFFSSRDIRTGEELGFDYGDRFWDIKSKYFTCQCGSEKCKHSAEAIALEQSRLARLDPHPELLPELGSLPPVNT
Assay: qHTS Assay for Inhibitors of Histone Lysine Methyltransferase G9a; further: nearly all actives have a fitted effect of over 75% in size
Settings: G9a H3K9 monomethylation, AlphaScreen, 2 h; activity, negative = inhibition: at 59 µM (top of the series) unless noted
Outline: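 Chemiluminescent proximity detection of H3K9 monomethylation, read after 10 min bead incubation in the dark. Reaction: 20 nM G9a, 500 nM biotin-H3K9 peptide, 20 uM SAM cofactor, 2 h, room temperature, following 15 min enzyme-compound preincubation.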
On the % scale 0 is the no-effect control and ±100 the full control effect; potency means the concentration at half of the fitted maximal effect; tags describe the fitted curve by direction and shape.

Row | SMILES | activity, negative = inhibition | Potency
1 | CCCN(CC(=O)Nc1ccccc1C)C(=O)c1cc(=O)[nH]c2ccccc12 | inactive: -4.7% [at 102 µM] | 
2 | CCN(C(=O)CSc1n[nH]c(-c2cc(Cl)ccc2OC)n1)C1CCS(=O)(=O)C1 (centres undefined) |  | inconclusive: 56.2 µM [inhibitor, partial curve, poor fit]
3 | COc1ccc(-c2cc(C(=O)O)c3c(C)nn(-c4ccccn4)c3n2)cc1 |  | inconclusive: 89.1 µM [inhibitor, single point]
4 | CCOC(=O)C(C)Sc1nc(-c2ccco2)cc(C(F)(F)F)c1C#N (centres undefined) |  | active: 39.8 µM
5 | CC(C)S(=O)(=O)C1=NSC2=NC(=O)/C(=C\c3ccc(-c4ccccc4)o3)C(=N)N21 |  | inconclusive: 89.1 µM [inhibitor, single point]
6 | COc1ccc(-c2nc(NC(=O)Cn3ccc(C(F)(F)F)n3)sc2C)cc1 |  | inconclusive: 100 µM [inhibitor, single point]
7 | Cc1cc(C)cc(NC(=O)CSc2nc3ccncc3[nH]2)c1 | inactive: -11.1% [at 102 µM] | 
8 | CC1CCN(S(=O)(=O)c2ccc3[nH]ccc3c2)CC1 | inactive: 16.2% | 
9 | O=C(O)c1ccc(COc2ccc3ccccc3c2/C=C2/NC(=O)N(Cc3ccc(F)cc3)C2=O)cc1 |  | inconclusive: 20 µM [inhibitor, partial curve]
10 | Cc1cc(Nc2ccccc2)n(C(=O)c2ccc(Cl)cc2)n1 |  | inconclusive: 39.8 µM [inhibitor, single point]
11 | Brc1ccc(-c2cn3cc(Cc4ccccc4)sc3n2)cc1 | inactive: 5.69% | 
12 | O=C1CCc2cc(S(=O)(=O)N3CCN(C(=O)c4ccco4)CC3)ccc2N1 |  | inconclusive: 70.8 µM [inhibitor, partial curve, poor fit]
13 | FC(F)(F)c1ccccc1-c1ccc2ncnc(NCc3cccs3)c2c1 | inactive: -7.6% [at 0.501 µM] | 
14 | O=C(CCCCCNC(=S)Nc1ccc(Cl)cc1)C[N+](=O)[O-] |  | inconclusive: 50.1 µM [inhibitor, partial curve, poor fit]
15 | COc1ccc(CCNC(=O)c2ccc3nc(-c4ccco4)c(-c4ccco4)nc3c2)cc1OC |  | inconclusive: 3.16 µM [inhibitor, full curve, poor fit]
16 | COc1cccc(-c2n[nH]c(=S)n2Cc2ccco2)c1OC |  | inconclusive: 31.6 µM [inhibitor, single point]
17 | CC(=O)N1CCCc2cc(S(=O)(=O)N3CCCC(C(=O)Nc4ccc(F)cc4F)C3)ccc21 (centres undefined) | inactive: -5.58% | 
18 | COc1cc(CNn2c(C)n[nH]c2=S)cc(Cl)c1OCc1ccc(F)cc1 |  | inconclusive: 2.82 µM [inhibitor, full curve, poor fit]
19 | CCN1CCN(Cc2ccc(NC(=O)c3cc(NC(=O)c4cc5cccc(OC)c5o4)cc(OC)c3)cc2C(F)(F)F)CC1 |  | inconclusive: 7.08 µM [inhibitor, single point]
20 | COc1ccc(OC)c(N2C(=O)C(Cl)=C(N3CCCCC3)C2=O)c1 |  | inconclusive: 39.8 µM [inhibitor, single point]
21 | COC(=O)c1ccc(/C=N/N2CCN(Cc3ccc(C)cc3C)CC2)cc1 |  | inconclusive: 10 µM [inhibitor, partial curve, poor fit]
22 | O=C(O)c1ccc(Oc2ccc(S(=O)(=O)c3ccc(C(=O)O)c(C(=O)O)c3)cc2)cc1 |  | active: 50.1 µM

Row | SMILES | activity, negative = inhibition | Potency
23 | O=C(CCC(=O)N1CCOc2ccccc21)NCc1cccs1 |  | inconclusive: 35.5 µM [inhibitor, partial curve, poor fit]
24 | Cc1ccc(NS(=O)(=O)c2ccc3c(c2)C(=O)c2ccccc2C3=O)c(C)c1 |  | inconclusive: 35.5 µM [inhibitor, single point]
25 | COc1ccc(C2C(C(=O)N3CCN(c4ccccn4)CC3)CC(=O)N2c2ccc(OC)cc2)cc1 (centres undefined) |  | inconclusive: 17.8 µM [inhibitor, single point]
26 | C/C(=N/NC(=O)COc1cc(C)ccc1C(C)C)C(=O)O |  | inconclusive: 39.8 µM [inhibitor, partial curve]
27 | NC(=O)N/N=C/c1ccc(OCc2cccc(Cl)c2)cc1 | inactive: -5.27% [at 102 µM] | 
28 | CCOC(=O)CC1(C)OCC(C[N+]2(C)CCCCC2)O1 (centres undefined) |  | inconclusive: 63.1 µM [inhibitor, single point]
29 | Brc1ccccc1CN1CCC(Cc2ccccc2)CC1 |  | active: 44.7 µM
30 | O=C(NCC(c1ccco1)S(=O)(=O)c1ccc(Cl)cc1)c1ccc(C(F)(F)F)cc1 (centres undefined) |  | inconclusive: 0.447 µM [inhibitor, partial curve, poor fit]
31 | CC(=O)Nc1ccc(S(=O)(=O)Nc2nc3ccccc3nc2Nc2ccc3ccccc3c2)cc1 |  | inconclusive: 14.1 µM [inhibitor, partial curve, poor fit]
32 | O=C(Cn1c(=O)n(Cc2ccco2)c(=O)c2sc3ccccc3c21)Nc1ccc(F)cc1F | inactive: -3.64% | 
33 | CC(CCN1CCOCC1)c1ccccc1 (centres undefined) |  | active: 11.2 µM
34 | NS(=O)(=O)c1ccc(N2CCN(C(=O)C3COc4ccccc4O3)CC2)nc1 (centres undefined) |  | inconclusive: 50.1 µM [inhibitor, partial curve]
35 | O=C1CCC(C(=O)Nc2ccccc2)N1 (centres undefined) | inactive: 24.4% | 
36 | COCC(=O)N(Cc1cc2ccc(C)cc2[nH]c1=O)c1ccccc1C | inactive: -6.72% [at 102 µM] | 
37 | CC1SC2(NC1=O)C1CC3CC(C1)CC2C3 (centres undefined) | inactive: 9.09% [at 102 µM] | 
38 | CCN(CCCNC(=O)CN1N=C(c2ccccc2)CCC1=O)c1cccc(C)c1 |  | active: 14.1 µM
39 | CCC(C)n1c(=O)c2sccc2n2c(CCCC(=O)Nc3ccc(F)cc3)nnc12 (centres undefined) | inactive: -4.8% | 
40 | CC(C)Cn1c(=O)c2c(nc3n2CCCN3Cc2ccccc2)n(C)c1=O |  | inconclusive: 79.4 µM [inhibitor, single point]
41 | O=C(Cn1cnc2ccccc21)N/N=C/c1cccs1 |  | inconclusive: 89.1 µM [inhibitor, single point]
42 | CC(C)[C@H]1CN=C2N(C[C@H](C)NC(=O)CCC3CCCCC3)[C@H](Cc3ccc(O)cc3)CN21 | inconclusive: -90.1% [inhibitor] | 
43 | O=C(C1CCCN(Cc2ccc(Br)cc2)C1)N1CCCCC1 (centres undefined) |  | inconclusive: 100 µM [inhibitor, single point]
44 | CCOC(=O)c1c(NC(=O)C[n+]2ccc(Cc3ccccc3)cc2)sc(C)c1C |  | active: 44.7 µM
